Laboratory results from PMC12820563.
Some of the results follow. The list includes weakly bound sequences.

Biological target: T1, MBP-FoxP3dN (UniProt Q99JB6)
T1 sequence: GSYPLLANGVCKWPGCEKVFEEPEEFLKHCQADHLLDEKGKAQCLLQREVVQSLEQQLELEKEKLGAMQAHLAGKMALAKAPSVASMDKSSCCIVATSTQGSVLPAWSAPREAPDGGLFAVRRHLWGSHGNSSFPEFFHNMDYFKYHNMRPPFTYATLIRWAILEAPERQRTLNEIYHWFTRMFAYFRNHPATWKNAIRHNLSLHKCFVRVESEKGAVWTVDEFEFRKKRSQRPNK
Assay: PD-seq (MBP pull-down with sequencing)
Conditions: 20 mM Tris-HCl pH 7.5, 100 mM NaCl, 1.5 mM MgCl2, 0.4 uM protein, 0.1 uM dsDNA library, 30 min, room temperature, amylose pull-down; high values mean tight binding; double strand, one strand shown

Sequence	binding signal (RPM ratio (pull-down/input))
GATGATTGTTCTCCCAGCTGATGAATTGGCCTGGTCGAGTAAACAAATTTTCCTAATCTTTCTGTTCAAGCGCCATCTAC	0.366
GATGATTGTTCTCCCAGCTGATGAATTGCATCTCTCGAGTAAACAAATTTTCCTAATCTTTCTGTTCAAGCGCCATCTAC	4.07
GATGATTGTTCTCCCAGCTGATGAATTAAAAATCTCGAGTAAACAAATTTTCCTAATCTTTCTGTTCAAGCGCCATCTAC	0.236
GATGATTGTTCTCCCAGCTGATGAATTCCTTTGCTCGAGTAAACAAATTTTCCTAATCTTTCTGTTCAAGCGCCATCTAC	0.42
GATGATTGTTCTCCCAGCTGATGAATTTTATCTTTCGAGTAAACAAATTTTCCTAATCTTTCTGTTCAAGCGCCATCTAC	0.517
GATGATTGTTCTCCCAGCTGATGAATTCCCAAAATCGAGTAAACAAATTTTCCTAATCTTTCTGTTCAAGCGCCATCTAC	0.172
GATGATTGTTCTCCCAGCTGATGAATTACCGTTGTCGAGTAAACAAATTTTCCTAATCTTTCTGTTCAAGCGCCATCTAC	0.697
GATGATTGTTCTCCCAGCTGATGAATTGAGATGGTCGAGTAAACAAATTTTCCTAATCTTTCTGTTCAAGCGCCATCTAC	0.493
GATGATTGTTCTCCCAGCTGATGAATTTGTCAAGTCGAGTAAACAAATTTTCCTAATCTTTCTGTTCAAGCGCCATCTAC	0.764
GATGATTGTTCTCCCAGCTGATGAATTAAGAATTTCGAGTAAACAAATTTTCCTAATCTTTCTGTTCAAGCGCCATCTAC	1.12
GATGATTGTTCTCCCAGCTGATGAATTGAAGGAATCGAGTAAACAAATTTTCCTAATCTTTCTGTTCAAGCGCCATCTAC	0.166
GATGATTGTTCTCCCAGCTGATGAATTCTATGCATCGAGTAAACAAATTTTCCTAATCTTTCTGTTCAAGCGCCATCTAC	1.21
GATGATTGTTCTCCCAGCTGATGAATTGGTGGCTTCGAGTAAACAAATTTTCCTAATCTTTCTGTTCAAGCGCCATCTAC	0.748
GATGATTGTTCTCCCAGCTGATGAATTTAAGAGTTCGAGTAAACAAATTTTCCTAATCTTTCTGTTCAAGCGCCATCTAC	0.415
GATGATTGTTCTCCCAGCTGATGAATTCCGGCAATCGAGTAAACAAATTTTCCTAATCTTTCTGTTCAAGCGCCATCTAC	1.76
GATGATTGTTCTCCCAGCTGATGAATTGATGCGGTCGAGTAAACAAATTTTCCTAATCTTTCTGTTCAAGCGCCATCTAC	3.14
GATGATTGTTCTCCCAGCTGATGAATTTAGCACATCGAGTAAACAAATTTTCCTAATCTTTCTGTTCAAGCGCCATCTAC	1.05
GATGATTGTTCTCCCAGCTGATGAATTAGCCCTGTCGAGTAAACAAATTTTCCTAATCTTTCTGTTCAAGCGCCATCTAC	0.264
GATGATTGTTCTCCCAGCTGATGAATTATCTTAGTCGAGTAAACAAATTTTCCTAATCTTTCTGTTCAAGCGCCATCTAC	0.342
GATGATTGTTCTCCCAGCTGATGAATTCAGTGAGTCGAGTAAACAAATTTTCCTAATCTTTCTGTTCAAGCGCCATCTAC	0.607
GATGATTGTTCTCCCAGCTGATGAATTGCACGTTTCGAGTAAACAAATTTTCCTAATCTTTCTGTTCAAGCGCCATCTAC	1.13

Sequence	binding signal (RPM ratio (pull-down/input))
GATGATTGTTCTCCCAGCTGATGAATTAGGCTTGTCGAGTAAACAAATTTTCCTAATCTTTCTGTTCAAGCGCCATCTAC	2.5
GATGATTGTTCTCCCAGCTGATGAATTACAGCTATCGAGTAAACAAATTTTCCTAATCTTTCTGTTCAAGCGCCATCTAC	0.716
GATGATTGTTCTCCCAGCTGATGAATTATGCCTATCGAGTAAACAAATTTTCCTAATCTTTCTGTTCAAGCGCCATCTAC	2.91
GATGATTGTTCTCCCAGCTGATGAATTGGTGCACTCGAGTAAACAAATTTTCCTAATCTTTCTGTTCAAGCGCCATCTAC	0.913
GATGATTGTTCTCCCAGCTGATGAATTTGCTTAGTCGAGTAAACAAATTTTCCTAATCTTTCTGTTCAAGCGCCATCTAC	4.79
GATGATTGTTCTCCCAGCTGATGAATTACTTCCATCGAGTAAACAAATTTTCCTAATCTTTCTGTTCAAGCGCCATCTAC	0.347
GATGATTGTTCTCCCAGCTGATGAATTCTGACGCTCGAGTAAACAAATTTTCCTAATCTTTCTGTTCAAGCGCCATCTAC	0.531
GATGATTGTTCTCCCAGCTGATGAATTTCGTGCGTCGAGTAAACAAATTTTCCTAATCTTTCTGTTCAAGCGCCATCTAC	0.73
GATGATTGTTCTCCCAGCTGATGAATTCCACCTCTCGAGTAAACAAATTTTCCTAATCTTTCTGTTCAAGCGCCATCTAC	0.486
GATGATTGTTCTCCCAGCTGATGAATTTTACTGTTCGAGTAAACAAATTTTCCTAATCTTTCTGTTCAAGCGCCATCTAC	0.655
GATGATTGTTCTCCCAGCTGATGAATTGTGGGAATCGAGTAAACAAATTTTCCTAATCTTTCTGTTCAAGCGCCATCTAC	0.433
GATGATTGTTCTCCCAGCTGATGAATTGGCACACTCGAGTAAACAAATTTTCCTAATCTTTCTGTTCAAGCGCCATCTAC	0.478
GATGATTGTTCTCCCAGCTGATGAATTAGGGCCCTCGAGTAAACAAATTTTCCTAATCTTTCTGTTCAAGCGCCATCTAC	0.432
GATGATTGTTCTCCCAGCTGATGAATTTACCGTCTCGAGTAAACAAATTTTCCTAATCTTTCTGTTCAAGCGCCATCTAC	0.547
GATGATTGTTCTCCCAGCTGATGAATTTGTCAATTCGAGTAAACAAATTTTCCTAATCTTTCTGTTCAAGCGCCATCTAC	1.59
GATGATTGTTCTCCCAGCTGATGAATTTAGACCATCGAGTAAACAAATTTTCCTAATCTTTCTGTTCAAGCGCCATCTAC	0.647
GATGATTGTTCTCCCAGCTGATGAATTGCTTGCGTCGAGTAAACAAATTTTCCTAATCTTTCTGTTCAAGCGCCATCTAC	1.39
GATGATTGTTCTCCCAGCTGATGAATTTTTGATTTCGAGTAAACAAATTTTCCTAATCTTTCTGTTCAAGCGCCATCTAC	0.408
GATGATTGTTCTCCCAGCTGATGAATTCTCTTGGTCGAGTAAACAAATTTTCCTAATCTTTCTGTTCAAGCGCCATCTAC	0.273
GATGATTGTTCTCCCAGCTGATGAATTGAGGCCGTCGAGTAAACAAATTTTCCTAATCTTTCTGTTCAAGCGCCATCTAC	0.905
GATGATTGTTCTCCCAGCTGATGAATTGTCCGCATCGAGTAAACAAATTTTCCTAATCTTTCTGTTCAAGCGCCATCTAC	0.901

Sequence	binding signal (RPM ratio (pull-down/input))
GATGATTGTTCTCCCAGCTGATGAATTTGGACTGTCGAGTAAACAAATTTTCCTAATCTTTCTGTTCAAGCGCCATCTAC	0.82
GATGATTGTTCTCCCAGCTGATGAATTTACGGCGTCGAGTAAACAAATTTTCCTAATCTTTCTGTTCAAGCGCCATCTAC	0.604
GATGATTGTTCTCCCAGCTGATGAATTAGAGCTTTCGAGTAAACAAATTTTCCTAATCTTTCTGTTCAAGCGCCATCTAC	0.825
GATGATTGTTCTCCCAGCTGATGAATTCCTGCGTTCGAGTAAACAAATTTTCCTAATCTTTCTGTTCAAGCGCCATCTAC	1.27
GATGATTGTTCTCCCAGCTGATGAATTCACCAAATCGAGTAAACAAATTTTCCTAATCTTTCTGTTCAAGCGCCATCTAC	0.206
GATGATTGTTCTCCCAGCTGATGAATTGAAGTCTTCGAGTAAACAAATTTTCCTAATCTTTCTGTTCAAGCGCCATCTAC	0.312
GATGATTGTTCTCCCAGCTGATGAATTCGGGCGATCGAGTAAACAAATTTTCCTAATCTTTCTGTTCAAGCGCCATCTAC	0.447
GATGATTGTTCTCCCAGCTGATGAATTATACACGTCGAGTAAACAAATTTTCCTAATCTTTCTGTTCAAGCGCCATCTAC	0.65
GATGATTGTTCTCCCAGCTGATGAATTATGGCGTTCGAGTAAACAAATTTTCCTAATCTTTCTGTTCAAGCGCCATCTAC	1.69
GATGATTGTTCTCCCAGCTGATGAATTAGTGGGATCGAGTAAACAAATTTTCCTAATCTTTCTGTTCAAGCGCCATCTAC	0.568
GATGATTGTTCTCCCAGCTGATGAATTGCTTTGATCGAGTAAACAAATTTTCCTAATCTTTCTGTTCAAGCGCCATCTAC	0.833
GATGATTGTTCTCCCAGCTGATGAATTTTCGTTTTCGAGTAAACAAATTTTCCTAATCTTTCTGTTCAAGCGCCATCTAC	0.532
GATGATTGTTCTCCCAGCTGATGAATTAGGGCGTTCGAGTAAACAAATTTTCCTAATCTTTCTGTTCAAGCGCCATCTAC	1.09
GATGATTGTTCTCCCAGCTGATGAATTAGATACTTCGAGTAAACAAATTTTCCTAATCTTTCTGTTCAAGCGCCATCTAC	0.637
GATGATTGTTCTCCCAGCTGATGAATTATTGGCTTCGAGTAAACAAATTTTCCTAATCTTTCTGTTCAAGCGCCATCTAC	0.759
GATGATTGTTCTCCCAGCTGATGAATTTAGTGCCTCGAGTAAACAAATTTTCCTAATCTTTCTGTTCAAGCGCCATCTAC	1.57
GATGATTGTTCTCCCAGCTGATGAATTGCGTCCATCGAGTAAACAAATTTTCCTAATCTTTCTGTTCAAGCGCCATCTAC	1.16
GATGATTGTTCTCCCAGCTGATGAATTAGCGCAGTCGAGTAAACAAATTTTCCTAATCTTTCTGTTCAAGCGCCATCTAC	0.646
GATGATTGTTCTCCCAGCTGATGAATTCCGATGTTCGAGTAAACAAATTTTCCTAATCTTTCTGTTCAAGCGCCATCTAC	1.38
GATGATTGTTCTCCCAGCTGATGAATTCTTGGCGTCGAGTAAACAAATTTTCCTAATCTTTCTGTTCAAGCGCCATCTAC	0.369
GATGATTGTTCTCCCAGCTGATGAATTAGCATTATCGAGTAAACAAATTTTCCTAATCTTTCTGTTCAAGCGCCATCTAC	3.34
